Among all 50,000 compounds or so, about 800 (1.6%) showed an effect of 50% or more. This is one part of the list.

The target in this assay is Bcl-2-like protein 10 (Homo sapiens) (UniProt Q9HD36). The experiment in a line: Phenotype converters, Bcl-B/TR3 peptide binding displacement, primary biochemical FP (AID 1240).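 Further: 0% = Bcl-B with tracer peptide and DMSO and 100% = tracer peptide lacking Bcl-B.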 The conditions noted are these: GST-Bcl-B / FITC-TR3 peptide fluorescence polarization; stronger effect = higher value; compound at 3.75 mg/L.
Chain of UniProt Q9HD36 (Q9HD36 whole entry, looked up): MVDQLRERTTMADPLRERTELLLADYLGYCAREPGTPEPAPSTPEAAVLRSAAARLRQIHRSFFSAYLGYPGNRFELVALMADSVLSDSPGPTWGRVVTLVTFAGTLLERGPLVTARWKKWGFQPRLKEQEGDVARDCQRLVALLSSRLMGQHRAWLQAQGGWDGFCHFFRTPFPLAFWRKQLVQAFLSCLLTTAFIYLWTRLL
`C=CCc1ccc(OCCOCCNCCCC)c(OC)c1`: the displacement was -7.3%.

In the case of `COc1ccc(O)c(/C=N/NC(=O)c2cccc(N3CCCC3=O)c2)c1`, the displacement is -3.6%.

In the case of `Clc1ccc2c(Sc3cccc4cccnc34)ccnc2c1`, the displacement was -2.6%.

With `COc1ccc(OC)c(CNc2ccccc2)c1`, the displacement is 3.9%.

For the compound `Cc1ccc(C(=O)N/C(=C/c2cccnc2)C(=O)Nc2ccc(F)cc2)cc1`, the displacement is -9.2%.

With `O=C(Cn1cc(/C=C2/C(=O)NC(=S)N(c3ccccc3)C2=O)c2ccccc21)Nc1ccccc1`, the displacement was determined as 143%.

For `COc1ccc(NC(=O)c2ccncc2)c(OC)c1`, the displacement came to 12%.

In the case of `NC(=O)c1c(NC(=O)c2cnccn2)sc2c1CCCC2`, the displacement was -0.3%.

For `CCN1CCOC(c2ccccc2)C(C(=O)OC)C1C(=O)OC` (centres undefined), the displacement is 2.6%.

In the case of `Cc1c(N2C(=O)S/C(=C\c3ccc([N+](=O)[O-])cc3)C2=O)c(=O)n(-c2ccccc2)n1C`, the displacement is -5.1%.

Turning to `CCOC(=O)c1cnn2c1NC1=C(CCc3ccccc31)C2C(F)(F)F` (centres undefined), the displacement turned out to be 3.7%.

As to `C=CCN1C(=O)NC(=O)/C(=C\c2ccccc2OC)C1=O`, the displacement is -8.6%.

On to `COc1cc(CN2CCN(Cc3ccc(C(F)(F)F)cc3)CC2)cc(OC)c1OC`, for which the displacement is -3.1%.

Regarding `CCOC(=O)C1=C(O)/C(=C/c2ccc([N+](=O)[O-])cc2)SC1=Nc1cccc2ccccc12`, the displacement was -10.9%.

As for `O=C(CSc1nc2ccccc2c(=O)n1-c1ccccc1)Nc1ccccc1Cl`, the displacement turned out to be 8.5%.

Take `COc1ccc(Br)cc1/C=N/NC(=O)c1c[nH]c2ccccc12`: the displacement was -8.9%.

On to `O=C(COc1ccccc1[N+](=O)[O-])Nc1ccc2oc(-c3cccc(Cl)c3)nc2c1`, for which the displacement was 12.4%.

Take `Cc1ccc(C)c(S(=O)(=O)N2CCC(C)CC2)c1`: the displacement turned out to be 1.8%.

With `O=C(NCCNC(=O)c1ccccc1O)c1ccccc1O`, the displacement is -13.5%.

Consider `Cc1ccc(N2C(=O)c3ccc(C(=O)Nc4ccc5c(c4)OCO5)cc3C2=O)cc1C`, for which the displacement was found to be 10.8%.

With `COCCCNC(=O)COc1cccc2ccccc12`, the displacement is -10.2%.

Regarding `CCOc1ccc(/C=C2\C(=O)NC(=S)N(c3ccc(C)cc3)C2=O)cc1Cl`, the displacement was determined as 12.3%.

Turning to `CCCCCCCNc1ccc(NC(=O)c2ccccc2)c2c1C(=O)c1ccccc1C2=O`, the displacement was 1.5%.

With `Nc1cc(-c2ccc(Br)cc2)nn1Cc1ccc(Cl)cc1`, the displacement is -1.3%.

Turning to `COc1cc(C(=O)Nc2ccc(S(=O)(=O)Nc3ncccn3)cc2)cc(OC)c1OC`, the displacement worked out at 4.4%.

On to `CCc1c(O)nc(SCC(=O)N2CCOCC2)n(-c2ccccc2C)c1=O`, for which the displacement was found to be 14.5%.

Take `COc1ccc(Cl)cc1C(=O)NCCC1=CCCCC1`: the displacement is -4%.

For the compound `Cc1c(Cl)cccc1NCCC(=O)c1ccc(Br)cc1`, the displacement was -14.6%.

For the compound `CC1=CC(C)(C)N(C(=O)CSc2nc3ccccc3s2)c2cc(C)ccc21`, the displacement is -7.4%.

Regarding `COC(=O)CCC(=O)Nc1ccc(C)c(Br)c1`, the displacement turned out to be 7.7%.

`O=C(O)CCN1C(=O)/C(=C/c2ccc(-c3ccc([N+](=O)[O-])cc3)o2)SC1=S`: the displacement was -59.7%.

For `Cc1nc(P(=O)(c2ccccc2)c2ccccc2)c(N2CCOCC2)o1`, the displacement was -5.6%.

Take `O=C(NC12CC3CC(CC(C3)C1)C2)N1CCC(C(O)(c2ccccc2)c2ccccc2)CC1`: the displacement was -8.9%.

Consider `CCCn1c(=O)c(C(=O)Nc2ccccc2O)c(O)c2ccccc21`, for which the displacement was found to be 0.9%.

`CCOC(=O)CC1(C)NN=C(c2ccccc2)S1` (centres undefined): the displacement was -2.1%.

As for `CC12CC3CC(C)(C1)CC(CNC(=S)Nc1ccccc1)(C3)C2`, the displacement is -6.3%.

Regarding `COc1cccc(/C=C2/N=C(c3ccc(NC(C)=O)cc3)OC2=O)c1`, the displacement is 33.2%.

Regarding `Cc1coc2c(I)c3oc(=O)cc(C)c3cc12`, the displacement is -5.9%.

Take `O=C(CC1Sc2ccc(C(F)(F)F)cc2NC1=O)Nc1ccccc1Cl` (centres undefined): the displacement is 0.2%.

In the case of `O=C(CN(c1cccc([N+](=O)[O-])c1)S(=O)(=O)c1ccccc1)N1CCN(c2ccccc2)CC1`, the displacement worked out at 1.7%.

As to `COc1ccc(-c2csc(NC(=O)CCCN3C(=O)c4cccc5cccc(c45)C3=O)n2)cc1`, the displacement is -16.6%.

`COc1ccc(C2(N(C(C)=O)c3ccccc3)C(=O)c3ccccc3C2=O)cc1`: the displacement stood at 11.7%.

Consider `Cc1cccc(OCCSc2nc3ccccc3n2CCO)c1`, for which the displacement was -2.1%.

`CCOC(=O)c1cnc(SCCCc2ccccc2)nc1N`: the displacement stood at 7.5%.

As for `O=C1/C(=C/c2cccc(Br)c2)SC(=S)N1CCCC(=O)N1CCCc2ccccc21`, the displacement was determined as 13.3%.

`CCCCNC(=O)/C(=C\c1ccc(-c2cccc([N+](=O)[O-])c2)o1)NC(=O)c1ccccc1`: the displacement is 5.3%.

Turning to `Cc1c(NC(=O)COc2ccc3ccccc3c2)cccc1[N+](=O)[O-]`, the displacement is 9.7%.

On to `N/C(=N\OC(=O)COc1ccc2ccccc2c1)c1cccnc1`, for which the displacement is -0.7%.

`CN(CCOC(=O)c1cc(Br)ccc1Cl)C(C)(C)C`: the displacement was 1.3%.

Regarding `O=C(N/N=C/c1cc([N+](=O)[O-])ccc1O)/C(=C/c1cccs1)NC(=O)c1ccccc1`, the displacement was determined as 2.7%.

Turning to `O=C(CC1Nc2ccccc2NC1=O)Nc1ccccc1NC(=O)CC1Nc2ccccc2NC1=O` (centres undefined), the displacement turned out to be 2.4%.

In the case of `NS(=O)(=O)c1cccc(NC(=O)/C=C/c2ccc(Cl)cc2)c1`, the displacement came to 0.8%.

As to `CC(=O)C(Cc1ccccc1)S(=O)(=O)c1ccc([N+](=O)[O-])cc1` (centres undefined), the displacement turned out to be 5.1%.

As for `O=C(NCCN1CCc2ccccc21)c1cccs1`, the displacement amounted to 1.2%.

As to `CCOc1ccc(NC(=O)c2ccc(Cl)c(Cl)c2)cc1`, the displacement amounted to 1.6%.

As for `CCOC(=O)C1=C(C)NC2=C(C(=O)CC(C)(C)C2)C1c1cccc(O)c1` (centres undefined), the displacement is 2%.

On to `COc1ccc(/C=C2\SC(=O)N(CCC(=O)O)C2=O)cc1OC`, for which the displacement came out at 5.4%.

As to `Cc1cc2c(cc1C)CN(c1ccc(C=Nc3ccc(Cl)cc3)cc1)C2`, the displacement came out at 8%.

Regarding `CC(=O)c1ccc(NC(=O)c2cc3cc(Br)ccc3oc2=O)cc1`, the displacement came out at 5.3%.

Take `CCC1=NN(C(=O)c2ccncc2)C(O)(C(F)(F)F)C1` (centres undefined): the displacement is -1.9%.

As for `Cc1ccc(/C=N/n2nnnc2N)cc1`, the displacement stood at 16.1%.

As for `NC(=O)c1ccccc1NC(=O)c1ccccc1C(=O)O`, the displacement was -7.2%.

With `COc1cc2c(cc1NC(=O)Cc1ccc(OC)c(OC)c1)oc1ccccc12`, the displacement is -8%.

As for `Cc1ccc(/C=N/NC(=O)c2ccc(C(=O)N/N=C/c3ccc(C)o3)o2)o1`, the displacement turned out to be 14.4%.

Turning to `Cc1ccc(C(=O)O)cc1NC(=O)c1ccc2c(c1)C(=O)N(c1ccc([N+](=O)[O-])cc1)C2=O`, the displacement turned out to be 9.1%.

With `O=C(Nc1ccc(Cl)c(Cl)c1)Nc1nnc(COc2ccccc2)s1`, the displacement was -0.3%.

As to `O=C(N/N=C/c1cccc(Br)c1)C1CC1`, the displacement was determined as 0.6%.

For the compound `COc1ccc(/C=N/NC(=S)NC2CCS(=O)(=O)C2)cc1` (centres undefined), the displacement is 9.3%.

In the case of `CC(=O)Nc1cccc(C(=O)Nc2ccccc2C(=O)O)c1`, the displacement is -2%.

With `Cc1ccc2oc(C(F)(F)C(F)F)cc(=O)c2c1`, the displacement came to 3.9%.

Take `C=CCC(C)(CC=C)NC(=O)c1ccccc1[N+](=O)[O-]`: the displacement is -6.9%.

Turning to `COc1ccc(NS(=O)(=O)c2cccs2)c(OC)c1`, the displacement was determined as 5%.

For the compound `COc1ccc(-c2csc(NC(=O)CCc3ccccc3)c2C(=O)O)cc1`, the displacement was -6.7%.

With `CSc1ccc(C2Nc3ccccc3NC3=C2C(=O)CC(c2ccc4c(c2)OCO4)C3)cc1` (centres undefined), the displacement was -4.6%.

Turning to `CCOc1ccc(NC(=O)c2c(-c3c(Cl)cccc3Cl)noc2C)cc1`, the displacement was 9.1%.

Turning to `COc1ccc2c(c1)CCC/C2=N\OC(=O)c1cc(OC)c(OC)c(OC)c1`, the displacement stood at 3.9%.

For the compound `Cc1ccc(N2NC(=O)/C(=C\c3ccco3)C2=O)cc1C`, the displacement was 6.4%.

`O=C(NCc1ccc(F)cc1)c1ccccc1Br`: the displacement came to 1.1%.

For the compound `Fc1cccc(Cl)c1CSc1nnc(-c2ccc(Br)cc2)o1`, the displacement stood at 1.7%.

For the compound `Cc1cccc(NC(=O)c2ccc3ccccc3n2)n1`, the displacement is -8.3%.

`COc1cc(/C=C2\SC(=S)N(Cc3ccccc3)C2=O)ccc1OC(=O)C12CC3CC(CC(C3)C1)C2`: the displacement is -3%.

Consider `COc1cc(/C=C2\C(=O)NC(=O)N(c3ccc(Br)c(C)c3)C2=O)cc(OC)c1O`, for which the displacement was -22.1%.

Turning to `Cn1ccnc1SCC(=O)N1c2ccccc2-c2c(ssc2=S)C1(C)C`, the displacement is -8%.

In the case of `CC1(C)CC(=O)C(C=NCC2CCN(C(=O)Nc3ccc(Cl)c(Cl)c3)CC2)=C(O)C1`, the displacement was 3.2%.

On to `O=C(NCc1ccccn1)c1cccc([N+](=O)[O-])c1`, for which the displacement was -8.7%.

Regarding `Cc1cc(NCc2cccnc2)nc2ccccc12`, the displacement amounted to 8%.

On to `COC(=O)c1ccccc1NC(=O)c1ccc(I)cc1`, for which the displacement stood at 10.9%.

Take `O=C(NCC1CCCO1)c1cccs1` (centres undefined): the displacement was -4.7%.

`O=C(Nc1nccs1)c1ccc(NC(=O)C2CCCCC2)cc1`: the displacement is -0.7%.

For `CCCSc1nc(N)c(C#N)c(-c2ccccc2)c1C#N`, the displacement was -11%.

Regarding `CCOC(=O)C1=C(C)N=c2s/c(=C\c3ccc(O)c(OC)c3)c(=O)n2C1c1ccc(C)cc1` (centres undefined), the displacement was determined as 98.4%.

With `CC(=O)Nc1ccc(S(=O)(=O)/N=C2\C=CC(=O)c3ccccc32)cc1`, the displacement came to 22.2%.

Regarding `O=C/C(=C\Nc1ccc(Br)cn1)c1nc2cc(Cl)ccc2o1`, the displacement was 43.9%.

`Cc1ccc(NC(=O)CSc2nc3ccccc3s2)c([N+](=O)[O-])c1`: the displacement stood at 8.5%.

On to `CC1(C)CC(C(CCNCc2ccccc2)c2ccccc2)CCO1` (centres undefined), for which the displacement was -7%.

Turning to `CCOc1ccc(C=NCC2(c3ccccc3)CCCC2)cc1OC`, the displacement turned out to be 9.1%.

Regarding `O=C1CC(N2CCN(C(c3ccccc3)c3ccccc3)CC2)C(=O)N1c1ccc(F)cc1` (centres undefined), the displacement is -0.9%.

Regarding `COc1cc(NC(=O)c2cnn3c2NC(c2ccc(Br)cc2)CC3C(F)(F)F)cc(OC)c1OC` (centres undefined), the displacement is 11.9%.

Regarding `CCOC1C(OCC)N(S(C)(=O)=O)CCN1S(C)(=O)=O` (centres undefined), the displacement is 4.3%.

On to `O=P(c1ccccc1)(c1ccccc1)C1COCCO1` (centres undefined), for which the displacement is 7.4%.

Turning to `O=C(NCCCNc1ccc([N+](=O)[O-])cc1Cl)c1ccc(F)cc1`, the displacement stood at 14%.

As to `Cc1cc(OCC(=O)NCc2ccccn2)ccc1Br`, the displacement is -0.3%.

For `Cc1cc(OCC(O)CN2CCN(Cc3ccccc3)CC2)ccc1C(C)C` (centres undefined), the displacement was -1.9%.

Consider `CN1CCN(/N=C/c2c(C(F)(F)F)[nH]n(-c3nc4ccccc4s3)c2=O)CC1`, for which the displacement is -4.6%.

On to `O=C(CCCN1C(=O)/C(=C\c2cccs2)SC1=S)Nc1ccc(Br)cc1`, for which the displacement was -0.3%.

As to `COC(=O)c1c(N)sc(C)c1-c1ccc(F)cc1`, the displacement came out at 1.7%.

Turning to `N#C/C(=N\Nc1ccc(F)cc1)C(=N)N1CCCCC1`, the displacement amounted to 5.1%.

In the case of `CC(=O)Nc1cccc(C(=O)Nc2ccc(NC(C)=O)cc2Cl)c1`, the displacement was 34.6%.

Regarding `Cc1cccc(N2CCN(S(=O)(=O)c3ccc([N+](=O)[O-])cc3)CC2)c1C`, the displacement is -6.3%.

These data come from PubChem BioAssay AID1240 (Sanford-Burnham Center for Chemical Genomics, 2008).
